Test results published in PubChem BioAssay (NCATS).
Values joined by “and” are separate entries in the source; they are usually repeats but may differ in a detail not shown here. Equal values may be shown once. This list was built around the results that the source calls inconclusive (neither active nor inactive); the mix of calls is not that of the screen. For some of these results: A potency beside an inconclusive call is a rough fit, not a confirmed value. For some of these results: A note “side channel” means that the fit belongs to a control or component signal, not to the main read-out. Active and inactive are the calls of the source. Unless noted, the call rests on the fitted dose curve.

Experiments:
[1] = Cell Viability - H-4-II-E (AID 543; active means well fitted curve in the direction sought with a large enough effect; inconclusive means small, poorly fitted or top-dose-only effect, or another doubt; inactive means no such curve, though single readings can be large; an effect the other way counts as inactive or inconclusive; further: potency means the concentration at half of the fitted maximal effect; nearly all actives have a fitted effect of over 35% in size)
Outline: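 CellTiter-Glo luminescence (intracellular ATP) measured after 40 h compound exposure at 37 °C in H-4-II-E rat hepatoma cells seeded at 1500/well. Values are AC50s fitted with the standard Hill equation.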

[2] = MultiTox-Fluor Cytotoxicity Assay - LYMP1-001 - Live Cells (AID 947; active means well fitted curve in the direction sought with a large enough effect; inconclusive means small, poorly fitted or top-dose-only effect, or another doubt; inactive means no such curve, though single readings can be large; an effect the other way counts as inactive or inconclusive; further: potency means the concentration at half of the fitted maximal effect)
[3] = MultiTox-Fluor Cytotoxicity Assay - LYMP1-002 - Dead Cells (AID 960; active means well fitted curve in the direction sought with a large enough effect; inconclusive means small, poorly fitted or top-dose-only effect, or another doubt; inactive means no such curve, though single readings can be large; an effect the other way counts as inactive or inconclusive; further: potency means the concentration at half of the fitted maximal effect; nearly all actives have a fitted effect of over 60% in size); settings: LYMP1-002 lymphoblastoid cells, dead-cell protease fluorescence; cytotoxicity (dead cells): at 46.1 µM (top of the series)
Outline: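 Dead-cell fluorescence (Ex/Em 485/520) after 16 h compound exposure at 37 C of LYMP1-002 lymphoblastoid cells in complete medium; AC50 by Hill equation, with data scaled between DMSO and 15 uM tetraoctylammonium bromide.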

[4] = Cell Viability - LYMP2-005 (AID 967; active means well fitted curve in the direction sought with a large enough effect; inconclusive means small, poorly fitted or top-dose-only effect, or another doubt; inactive means no such curve, though single readings can be large; an effect the other way counts as inactive or inconclusive; further: potency means the concentration at half of the fitted maximal effect)
Outline: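 Steps: seed 2500 LYMP2-005 cells/well, incubate 5 h at 37 C, add compound, incubate 24 h at 37 C, add CellTiter-Glo, wait 30 min at RT, read luminescence. Concentration-response data fitted to Hill equation for AC50.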

[5] = target: Peroxisome proliferator-activated receptor delta (Homo sapiens) (UniProt Q03181); assay: qHTS assay for small molecule antagonists of peroxisome proliferator-activated receptor delta signaling (AID 588535; active means well fitted inhibition curve with a large enough effect in the signal ratio, with a control signal flat, not every such curve was filed as active; inconclusive means small, poorly fitted or top-dose-only effect, or effect the other way, or a change in a side signal; inactive means no such curve, though single readings can be large or run the other way; the % refers to the signal ratio; further: potency means the concentration at half of the fitted maximal effect); settings: HEK293T PPARd-UAS-bla, beta-lactamase FRET ratio, 18 h; activity change, negative = inhibition: at 76.7 µM (top of the series)
Outline: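 Fluorescence from CCF4-loaded GeneBLAzer PPAR-delta-UAS-bla HEK293T cells (2 hrs RT loading) quantified reporter inhibition after an 18 hr, 37 C compound exposure across a titration.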

[6] = target: Peroxisome proliferator-activated receptor gamma (Homo sapiens) (UniProt P37231); assay: qHTS assay for small molecule antagonists of peroxisome proliferator-activated receptor gamma signaling (AID 588537; active means well fitted inhibition curve with a large enough effect in the signal ratio, with a control signal flat, not every such curve was filed as active; inconclusive means small, poorly fitted or top-dose-only effect, or effect the other way, or a change in a side signal; the % refers to the signal ratio; further: potency means the concentration at half of the fitted maximal effect;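 further: reporter cells co-stimulated with 50 nM rosiglitazone agonist during compound treatment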; on activity, negative = inhibition: % of control where 0% means no effect); settings: HEK293 PPARg-UAS-bla, beta-lactamase ratio, antagonist mode; activity, negative = inhibition: at 76.8 µM (top of the series)
Outline: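 Fluorescence at 460 and 530 nm (405 nm excitation) reported beta-lactamase cleavage of CCF4 after 2 h room-temperature loading. HEK293 reporter cells in 1% charcoal/dextran-treated FBS had received compound and rosiglitazone for 16 h.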

[7] = target: Retinoic acid receptor RXR-alpha (Homo sapiens) (UniProt P19793); assay: qHTS assay for small molecule agonists of retinoid X receptor alpha signaling (AID 588544); settings: HEK293T RXRa-UAS-bla, beta-lactamase reporter, 18 h; activation: at 76.7 µM (top of the series); further: potency means the concentration at half of the fitted maximal effect;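 on activation: 0% = DMSO basal wells and 100% = reference agonist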
[8] = target: Thyroid hormone receptor beta (Homo sapiens) (UniProt P10828); assay: qHTS assay for small molecule agonists of thyroid hormone receptor beta signaling (AID 588545); settings: TR-UAS-bla GripTite HEK 293, beta-lactamase ratio, agonist mode, 18 h; activation: at 76.7 µM, percent of T3 response, DMSO as zero; further: potency means the concentration at half of the fitted maximal effect;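 on activation: 0% = DMSO only and 100% = 10 nM T3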
Outline: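 Beta-lactamase reporter activity under TR response element control is measured in HEK 293 cells after 18 hrs compound exposure. Signal is ratiometric CCF4 fluorescence, 460/530 nm.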

[9] = target: Retinoic acid receptor RXR-alpha (Homo sapiens) (UniProt P19793); assay: qHTS assay for small molecule antagonists of retinoid X receptor alpha signaling (AID 588546; active means well fitted inhibition curve with a large enough effect in the signal ratio, with a control signal flat, not every such curve was filed as active; inconclusive means small, poorly fitted or top-dose-only effect, or effect the other way, or a change in a side signal; inactive means no such curve, though single readings can be large or run the other way; the % refers to the signal ratio; further: potency means the concentration at half of the fitted maximal effect;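 on max response: cells stimulated with 9-cis-retinoic acid as agonist; on the % scale 0 is the no-effect control and ±100 the full control effect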); settings: HEK293T RXRa-UAS-bla, beta-lactamase ratio, antagonist mode
Outline: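 Beta-lactamase reporter inhibition, read as CCF4 fluorescence ratio (ex 405, em 460/530 nm) after 2 h at RT. HEK293T UAS-bla cells, 2500/well, were stimulated with 9-cis-RA at 500 or 100 nM final alongside test compound for 18 h at 37 C.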

[10] = target: Thyroid hormone receptor beta (Homo sapiens) (UniProt P10828); assay: qHTS assay for small molecule antagonists of thyroid hormone receptor beta signaling (AID 588547; active means well fitted inhibition curve with a large enough effect in the signal ratio, with a control signal flat, not every such curve was filed as active; inconclusive means small, poorly fitted or top-dose-only effect, or effect the other way, or a change in a side signal; the % refers to the signal ratio; further: potency means the concentration at half of the fitted maximal effect); settings: TR-UAS-bla HEK293, beta-lactamase ratio, antagonist mode, 18 h
Outline: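 TR-UAS-bla GripTite HEK293 cells in 2% charcoal/dextran FBS medium; compounds 0.59 nM to 92 uM with T3 at 0.4nM final, 18 h at 37 C. Beta-lactamase read by CCF4 fluorescence (460/530 nm); Hill fits gave IC50 and efficacy.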

[11] = qHTS assay for small molecule agonists of the antioxidant response element (ARE) signaling pathway (AID 651741; active means well fitted activation curve with a large enough effect in the signal ratio; inconclusive means small, poorly fitted or top-dose-only effect, or effect the other way, or a change in a side signal; the % refers to the signal ratio; further: potency means the concentration at half of the fitted maximal effect; on activation: % of control where 0% means no effect); settings: HepG2 ARE-bla reporter, beta-lactamase FRET ratio, 16 h; activation: at 96 µM (top of the series)
Outline: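 Stably integrated ARE-beta-lactamase reporter HepG2 cells; 16 h compound incubation, 37 C; LiveBLAzer FRET substrate 2 h at room temperature; fluorescence intensity.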

[12] = qHTS assay to identify small molecules that stimulate interleukin-8 (IL-8) secretion (AID 651758; active means well fitted activation curve with a large enough effect in the signal ratio; inconclusive means small, poorly fitted or top-dose-only effect, or effect the other way, or a change in a side signal; the % refers to the signal ratio; further: potency means the concentration at half of the fitted maximal effect); settings: HTRF ratio (665/615); activation: at 92.2 µM (top of the series)
Outline: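 Compounds are added to THP-1 cells (2000 per well) and left 16 hrs at 37 C. A labeled anti-IL-8 antibody pair is then added, and IL-8 secretion is measured by time-resolved FRET after 1-3 hrs at room temperature.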

[13] = qHTS assay for small molecule antagonists of the retinoid-related orphan receptor gamma (ROR-gamma) signaling pathway - cell viability counter screen (AID 720652; active means well fitted curve in the direction sought with a large enough effect in the repeat runs; inconclusive means weak or mixed curves; inactive means no such curve, though single readings can be large; an effect the other way counts as inactive or inconclusive;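 further: potency means the concentration at half of the fitted maximal effect; compound exposure lasted 16 hr before ATP read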)
Outline: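 Cytotoxicity counter screen: intracellular ATP (CellTiter-Glo luminescence) measured in the doxycycline-induced CHO RORE-luciferase reporter line after 16 hr compound exposure at 37 C, 5% CO2.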

[14] = Cell Viability - Hek293 (AID 427;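 active means compounds whose dose-response curve shows a full or clear partial loss of cell viability, called from curve shape rather than a numeric limit; inconclusive means weak partial curves or an effect only at the top dose; inactive means no dose-dependent loss of viability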;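 further: potency means the concentration at half of the fitted maximal effect; cells exposed to compound for 40 hours at 37 °C before reading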); settings: qHTS
Outline: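 HEK293 cells in complete medium were exposed to compound for 40 hr at 37 °C, then cellular ATP was read by CellTiter-Glo luminescence. Data were normalized to DMSO (basal) and 100 uM tamoxifen (100% inhibition), and AC50 came from Hill fits.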

[15] = target: Estrogen receptor (Homo sapiens) (UniProt P03372); assay: qHTS assay for small molecule antagonists of estrogen receptor alpha signaling (AID 588513; active means well fitted curve in the direction sought with a large enough effect in the signal ratio, with a control signal flat, not every such curve was filed as active; inconclusive means small, poorly fitted or top-dose-only effect, or effect the other way, or a change in a side signal; inactive means no such curve, though single readings can be large or run the other way; the % refers to the signal ratio; further: potency means the concentration at half of the fitted maximal effect); settings: ER-alpha-UAS-bla HEK293, beta-lactamase ratio, antagonist mode; activity, negative = inhibition: at 76.9 µM (top of the series)
Outline: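 Beta-lactamase reporter, antagonist mode, HEK 293 GripTite cells; 0.5nM E2 stimulus, 18 h, 37 C; CCF4 dye 2 h RT; fluorescence. IC50 and efficacy from Hill fits, normalized to E2 and DMSO.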

[16] = target: Estrogen receptor (Homo sapiens) (UniProt P03372); assay: qHTS assay for small molecule agonists of estrogen receptor alpha signaling (AID 588514); settings: ER-alpha-UAS-bla HEK293, beta-lactamase ratio, 18 h; activation: at 76.8 µM (top of the series), percent of full estradiol response, vehicle zero unless noted; further: potency means the concentration at half of the fitted maximal effect; nearly all actives have a fitted effect of over 70% in size
Outline: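 EC50 and efficacy came from Hill fits of beta-lactamase reporter signal (CCF4 dye, 2 h at room temperature) scaled between DMSO and 20 nM 17-beta-estradiol. Agonist mode: HEK293 ER-alpha-UAS-bla cells in charcoal/dextran-stripped serum medium, 18 h compound exposure at 37 C.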

[17] = target: Glucocorticoid receptor (Homo sapiens) (UniProt P04150); assay: qHTS assay for small molecule antagonists of glucocorticoid receptor signaling (AID 588533; active means well fitted inhibition curve with a large enough effect in the signal ratio, with a control signal flat, not every such curve was filed as active; inconclusive means small, poorly fitted or top-dose-only effect, or effect the other way, or a change in a side signal; the % refers to the signal ratio); settings: HeLa MMTV-bla, GRE beta-lactamase ratio, antagonist mode, 18 h; activity change, negative = inhibition: at 76.8 µM (top of the series)
[18] = target: Peroxisome proliferator-activated receptor gamma (Homo sapiens) (UniProt P37231); assay: qHTS assay for small molecule agonists of peroxisome proliferator-activated receptor gamma signaling (AID 588536; active means well fitted curve in the direction sought with a large enough effect in the signal ratio, with a control signal flat, not every such curve was filed as active; inconclusive means small, poorly fitted or top-dose-only effect, or effect the other way, or a change in a side signal; inactive means no such curve, though single readings can be large or run the other way; the % refers to the signal ratio;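 further: 0% = DMSO basal wells and 100% = rosiglitazone at 2 µM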); settings: HEK293 PPARg-UAS-bla, beta-lactamase ratio, 16 h; activation: at 76.7 µM (top of the series), percent of rosiglitazone response, DMSO as zero
Outline: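 Cells were plated and held 6–6.5 h at 37 C, then compounds were added as a titration series. After a further 16 h, CCF4 dye was loaded for 2 h at room temperature and emission at 460/530 nm recorded.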
Tags describe the fitted curve by direction and shape or compound fluorescence and quenching.

UniProt Q03181, sequence (Q03181 whole entry, looked up): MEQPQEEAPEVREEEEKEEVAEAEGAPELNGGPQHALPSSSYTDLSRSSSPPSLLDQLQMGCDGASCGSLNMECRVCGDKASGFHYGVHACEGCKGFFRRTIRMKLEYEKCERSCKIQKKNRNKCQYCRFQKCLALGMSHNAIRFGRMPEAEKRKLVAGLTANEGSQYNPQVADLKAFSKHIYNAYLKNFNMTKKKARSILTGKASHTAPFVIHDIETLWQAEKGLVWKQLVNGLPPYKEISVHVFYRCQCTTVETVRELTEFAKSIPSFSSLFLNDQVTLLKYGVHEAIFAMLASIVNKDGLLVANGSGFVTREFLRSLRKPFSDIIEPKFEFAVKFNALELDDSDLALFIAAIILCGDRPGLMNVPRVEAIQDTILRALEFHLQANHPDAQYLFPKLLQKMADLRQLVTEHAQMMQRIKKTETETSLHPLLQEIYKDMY
UniProt P19793, sequence (P19793 whole entry, looked up): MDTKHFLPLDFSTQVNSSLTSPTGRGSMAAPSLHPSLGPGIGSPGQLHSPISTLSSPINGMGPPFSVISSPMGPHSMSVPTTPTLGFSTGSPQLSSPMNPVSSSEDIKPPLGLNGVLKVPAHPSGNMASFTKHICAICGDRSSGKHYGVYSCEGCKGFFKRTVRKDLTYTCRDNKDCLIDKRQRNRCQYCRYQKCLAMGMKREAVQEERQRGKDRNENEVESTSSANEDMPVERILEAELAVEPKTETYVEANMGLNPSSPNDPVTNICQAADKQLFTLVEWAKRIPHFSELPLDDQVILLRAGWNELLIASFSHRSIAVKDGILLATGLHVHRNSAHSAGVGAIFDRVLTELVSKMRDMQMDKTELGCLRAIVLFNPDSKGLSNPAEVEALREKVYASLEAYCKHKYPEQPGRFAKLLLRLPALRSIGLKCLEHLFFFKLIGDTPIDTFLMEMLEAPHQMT
UniProt P10828, sequence (P10828 whole entry, looked up): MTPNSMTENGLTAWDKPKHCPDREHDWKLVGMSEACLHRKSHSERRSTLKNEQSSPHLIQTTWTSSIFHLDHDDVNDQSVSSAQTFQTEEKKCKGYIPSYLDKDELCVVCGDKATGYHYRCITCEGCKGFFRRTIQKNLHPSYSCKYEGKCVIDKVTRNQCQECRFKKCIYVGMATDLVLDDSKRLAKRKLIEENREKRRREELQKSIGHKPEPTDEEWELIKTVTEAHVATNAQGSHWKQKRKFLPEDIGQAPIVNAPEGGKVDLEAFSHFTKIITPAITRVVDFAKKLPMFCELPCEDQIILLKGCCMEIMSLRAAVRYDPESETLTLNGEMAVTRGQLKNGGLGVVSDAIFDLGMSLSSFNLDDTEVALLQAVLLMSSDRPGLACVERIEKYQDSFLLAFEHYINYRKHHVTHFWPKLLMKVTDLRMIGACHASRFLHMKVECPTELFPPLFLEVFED
UniProt P03372, sequence (P03372 whole entry, looked up): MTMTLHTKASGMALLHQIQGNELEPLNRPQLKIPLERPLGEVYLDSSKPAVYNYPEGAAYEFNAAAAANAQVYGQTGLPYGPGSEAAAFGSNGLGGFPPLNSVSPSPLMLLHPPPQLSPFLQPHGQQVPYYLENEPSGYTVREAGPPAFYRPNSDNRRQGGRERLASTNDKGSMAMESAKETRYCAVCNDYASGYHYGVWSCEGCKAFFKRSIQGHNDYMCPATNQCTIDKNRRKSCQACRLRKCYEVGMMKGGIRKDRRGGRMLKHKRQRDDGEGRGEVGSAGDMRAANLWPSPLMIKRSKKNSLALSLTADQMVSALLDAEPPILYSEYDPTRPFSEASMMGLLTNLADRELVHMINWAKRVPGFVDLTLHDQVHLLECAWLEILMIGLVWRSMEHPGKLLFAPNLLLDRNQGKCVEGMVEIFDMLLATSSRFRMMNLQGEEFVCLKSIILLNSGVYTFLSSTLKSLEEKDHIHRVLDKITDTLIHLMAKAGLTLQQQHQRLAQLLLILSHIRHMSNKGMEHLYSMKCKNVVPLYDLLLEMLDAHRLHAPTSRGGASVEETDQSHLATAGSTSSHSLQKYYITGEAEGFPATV

N#CSCSC#N
inconclusive: Potency [5] 8.91 µM [inhibitor, full curve, poor fit] and 11.2 µM [cytotoxic, side channel, full curve] | Potency [7] 4.47 µM [cytotoxic, side channel, full curve, poor fit] | activation [7] 6.14% | Potency [8] 25.1 µM [side channel, falling, partial curve, poor fit] | activation [8] 41.9% | Potency [9] 5.62 µM [cytotoxic, side channel, full curve] | max response [9] -33.1% | Potency [10] 63.1 µM [inhibitor, single point] and 25.1 µM [side channel] | Potency [11] 66.8 µM [cytotoxic, side channel] | activation [11] 9.83% [inhibitor] | Potency [12] 66.8 µM [inhibitor, single point]
active: Potency [1] 10 µM | Potency [2] 39.8 µM | Potency [3] 10 µM | Potency [4] 5.01 µM | Potency [6] 35.5 µM | Potency [13] 9.44 µM

ClC1=C(Cl)C2(Cl)C3C(Cl)C(Cl)CC3C1(Cl)C2(Cl)Cl (centres undefined)
active: Potency [14] 72.7 µM | Potency [11] 66.8 µM | Potency [12] 42.2 µM | Potency [13] 66.8 µM
inconclusive: Potency [1] 63.1 µM [falling, single point] | Potency [2] 50.1 µM [cytotoxic, partial curve] | Potency [3] 25.1 µM [cytotoxic, partial curve, poor fit] | Potency [15] 31.6 µM [falling, single point] | Potency [16] 50.1 µM [fluorescent, side channel, single point] | Potency [17] 44.7 µM [inhibitor, single point] | activity change, negative = inhibition [5] -22.2% | activation [18] 36.1% | activity, negative = inhibition [6] -15.6% | Potency [7] 31.6 µM [inhibitor, single point] | Potency [8] 50.1 µM [rising, single point] | Potency [9] 35.5 µM [inhibitor, partial curve, poor fit] | Potency [10] 50.1 µM [side channel, falling, single point]
